From the CheMixHub viscosity set
“And” between values parts separate entries of the source, which are not always exact repeats. Identical values can stand only once. This continues a long series; more values of the same kind are listed elsewhere.

Assay: xn = mol fraction of the nth substance listed

CCCO + O
Settings | viscosity
308.15 K, 100 kPa, x1 = 0.629 | 1.712 mPa·s
308.15 K, 100 kPa, x1 = 0.73 | 1.632 mPa·s
308.15 K, 100 kPa, x1 = 0.851 | 1.577 mPa·s
308.15 K, 101 kPa, x1 = 0.0738 | 1.309 mPa·s
308.15 K, 101 kPa, x1 = 0.1 | 1.535 mPa·s
308.15 K, 101 kPa, x1 = 0.2 | 1.887 mPa·s
308.15 K, 101 kPa, x1 = 0.3 | 1.964 mPa·s
308.15 K, 101 kPa, x1 = 0.3067 | 1.967 mPa·s
308.15 K, 101 kPa, x1 = 0.5 | 1.857 mPa·s
308.15 K, 101 kPa, x1 = 0.5764 | 1.695 mPa·s
308.15 K, 101 kPa, x1 = 0.6 | 1.78 mPa·s
308.15 K, 101 kPa, x1 = 0.6817 | 1.704 mPa·s
308.15 K, 101 kPa, x1 = 0.7 | 1.703 mPa·s
308.15 K, 101 kPa, x1 = 0.8 | 1.644 mPa·s
308.15 K, 101 kPa, x1 = 0.819 | 1.622 mPa·s
308.15 K, 101 kPa, x1 = 0.9 | 1.581 mPa·s and 1.594 mPa·s
308.15 K, 101.33 kPa, x1 = 0.03223 | 1.019 mPa·s
308.15 K, 101.33 kPa, x1 = 0.06972 | 1.33 mPa·s
308.15 K, 101.33 kPa, x1 = 0.1139 | 1.6 mPa·s
308.15 K, 101.33 kPa, x1 = 0.1666 | 1.793 mPa·s
308.15 K, 101.33 kPa, x1 = 0.4116 | 1.902 mPa·s
308.15 K, 101.33 kPa, x1 = 0.5453 | 1.802 mPa·s
308.15 K, 101.33 kPa, x1 = 0.7296 | 1.662 mPa·s
308.15 K, 101.33 kPa, x1 = 0.8507 | 1.593 mPa·s
312.95 K, 101.33 kPa, x1 = 0.0555 | 1.081 mPa·s
312.95 K, 101.33 kPa, x1 = 0.1134 | 1.399 mPa·s
312.95 K, 101.33 kPa, x1 = 0.1383 | 1.488 mPa·s
312.95 K, 101.33 kPa, x1 = 0.1644 | 1.563 mPa·s
312.95 K, 101.33 kPa, x1 = 0.1938 | 1.623 mPa·s
312.95 K, 101.33 kPa, x1 = 0.3109 | 1.705 mPa·s
312.95 K, 101.33 kPa, x1 = 0.5696 | 1.58 mPa·s
312.95 K, 101.33 kPa, x1 = 0.7354 | 1.488 mPa·s
313.15 K, 100 kPa, x1 = 0.2014 | 1.618 mPa·s
313.15 K, 101 kPa, x1 = 0.0738 | 1.132 mPa·s
313.15 K, 101 kPa, x1 = 0.1 | 1.333 mPa·s
313.15 K, 101 kPa, x1 = 0.2 | 1.636 mPa·s
313.15 K, 101 kPa, x1 = 0.3 | 1.705 mPa·s
313.15 K, 101 kPa, x1 = 0.3067 | 1.706 mPa·s
313.15 K, 101 kPa, x1 = 0.5764 | 1.48 mPa·s
313.15 K, 101 kPa, x1 = 0.6 | 1.566 mPa·s
313.15 K, 101 kPa, x1 = 0.6817 | 1.512 mPa·s
313.15 K, 101 kPa, x1 = 0.7 | 1.504 mPa·s
313.15 K, 101 kPa, x1 = 0.8 | 1.437 mPa·s and 1.457 mPa·s
313.15 K, 101 kPa, x1 = 0.819 | 1.447 mPa·s
313.15 K, 101 kPa, x1 = 0.9 | 1.405 mPa·s and 1.42 mPa·s
313.15 K, 101.3 kPa, x1 = 0.0908 | 1.29 mPa·s
313.15 K, 101.3 kPa, x1 = 0.2306 | 1.66 mPa·s
313.15 K, 101.3 kPa, x1 = 0.7296 | 1.49 mPa·s
313.15 K, 101.33 kPa, x1 = 0.0322 | 0.926 mPa·s
313.15 K, 101.33 kPa, x1 = 0.03223 | 0.902 mPa·s
313.15 K, 101.33 kPa, x1 = 0.06972 | 1.159 mPa·s
313.15 K, 101.33 kPa, x1 = 0.1139 | 1.384 mPa·s
313.15 K, 101.33 kPa, x1 = 0.114 | 1.423 mPa·s
313.15 K, 101.33 kPa, x1 = 0.1666 | 1.545 mPa·s
313.15 K, 101.33 kPa, x1 = 0.2306 | 1.655 mPa·s
313.15 K, 101.33 kPa, x1 = 0.231 | 1.718 mPa·s
313.15 K, 101.33 kPa, x1 = 0.412 | 1.739 mPa·s
313.15 K, 101.33 kPa, x1 = 0.5453 | 1.574 mPa·s
313.15 K, 101.33 kPa, x1 = 0.7296 | 1.467 mPa·s
313.15 K, 101.33 kPa, x1 = 0.8507 | 1.414 mPa·s
317.92 K, 101.33 kPa, x1 = 0.0555 | 0.953 mPa·s
317.92 K, 101.33 kPa, x1 = 0.1134 | 1.224 mPa·s
317.92 K, 101.33 kPa, x1 = 0.1383 | 1.229 mPa·s
317.92 K, 101.33 kPa, x1 = 0.1644 | 1.367 mPa·s
317.92 K, 101.33 kPa, x1 = 0.1938 | 1.416 mPa·s
317.92 K, 101.33 kPa, x1 = 0.2288 | 1.456 mPa·s
317.92 K, 101.33 kPa, x1 = 0.3109 | 1.488 mPa·s
317.92 K, 101.33 kPa, x1 = 0.4189 | 1.467 mPa·s
317.92 K, 101.33 kPa, x1 = 0.5696 | 1.393 mPa·s
317.92 K, 101.33 kPa, x1 = 0.7354 | 1.317 mPa·s
318.15 K, 100 kPa, x1 = 0.025 | 0.738 mPa·s
318.15 K, 100 kPa, x1 = 0.0917 | 1.101 mPa·s
318.15 K, 100 kPa, x1 = 0.191 | 1.403 mPa·s
318.15 K, 101 kPa, x1 = 0.0738 | 0.9864 mPa·s
318.15 K, 101 kPa, x1 = 0.1 | 1.169 mPa·s
318.15 K, 101 kPa, x1 = 0.1925 | 1.417 mPa·s
318.15 K, 101 kPa, x1 = 0.2 | 1.431 mPa·s
318.15 K, 101 kPa, x1 = 0.3 | 1.492 mPa·s
318.15 K, 101 kPa, x1 = 0.3067 | 1.492 mPa·s
318.15 K, 101 kPa, x1 = 0.4 | 1.474 mPa·s
318.15 K, 101 kPa, x1 = 0.4143 | 1.457 mPa·s
318.15 K, 101 kPa, x1 = 0.5 | 1.429 mPa·s
318.15 K, 101 kPa, x1 = 0.5764 | 1.288 mPa·s
318.15 K, 101 kPa, x1 = 0.6 | 1.383 mPa·s
318.15 K, 101 kPa, x1 = 0.6817 | 1.337 mPa·s
318.15 K, 101 kPa, x1 = 0.7 | 1.334 mPa·s
318.15 K, 101 kPa, x1 = 0.8 | 1.278 mPa·s and 1.298 mPa·s
318.15 K, 101 kPa, x1 = 0.819 | 1.288 mPa·s
318.15 K, 101 kPa, x1 = 0.9 | 1.254 mPa·s and 1.268 mPa·s
322.95 K, 101.33 kPa, x1 = 0.0555 | 0.847 mPa·s
322.95 K, 101.33 kPa, x1 = 0.1134 | 1.082 mPa·s
322.95 K, 101.33 kPa, x1 = 0.1644 | 1.203 mPa·s
322.95 K, 101.33 kPa, x1 = 0.1938 | 1.248 mPa·s
322.95 K, 101.33 kPa, x1 = 0.2288 | 1.282 mPa·s
322.95 K, 101.33 kPa, x1 = 0.3109 | 1.311 mPa·s
322.95 K, 101.33 kPa, x1 = 0.5696 | 1.236 mPa·s
323.15 K, 100 kPa, x1 = 0.15 | 1.187 mPa·s
323.15 K, 100 kPa, x1 = 0.25 | 1.321 mPa·s and 1.323 mPa·s
323.15 K, 100 kPa, x1 = 0.3 | 1.317 mPa·s
323.15 K, 100 kPa, x1 = 0.4 | 1.315 mPa·s
323.15 K, 100 kPa, x1 = 0.5 | 1.266 mPa·s
323.15 K, 101 kPa, x1 = 0.0738 | 0.8639 mPa·s
323.15 K, 101 kPa, x1 = 0.1 | 1.034 mPa·s
323.15 K, 101 kPa, x1 = 0.1925 | 1.24 mPa·s
323.15 K, 101 kPa, x1 = 0.3 | 1.315 mPa·s
323.15 K, 101 kPa, x1 = 0.4143 | 1.275 mPa·s
323.15 K, 101 kPa, x1 = 0.5 | 1.268 mPa·s
323.15 K, 101 kPa, x1 = 0.6 | 1.23 mPa·s
323.15 K, 101 kPa, x1 = 0.7 | 1.19 mPa·s
323.15 K, 101 kPa, x1 = 0.8 | 1.142 mPa·s and 1.161 mPa·s
323.15 K, 101 kPa, x1 = 0.819 | 1.144 mPa·s
323.15 K, 101 kPa, x1 = 0.9 | 1.138 mPa·s
323.15 K, 101.33 kPa, x1 = 0.0322 | 0.767 mPa·s
323.15 K, 101.33 kPa, x1 = 0.03223 | 0.726 mPa·s
323.15 K, 101.33 kPa, x1 = 0.06972 | 0.907 mPa·s
323.15 K, 101.33 kPa, x1 = 0.1139 | 1.072 mPa·s
323.15 K, 101.33 kPa, x1 = 0.1666 | 1.191 mPa·s
323.15 K, 101.33 kPa, x1 = 0.2306 | 1.274 mPa·s
323.15 K, 101.33 kPa, x1 = 0.231 | 1.335 mPa·s
323.15 K, 101.33 kPa, x1 = 0.4116 | 1.276 mPa·s
323.15 K, 101.33 kPa, x1 = 0.412 | 1.351 mPa·s
323.15 K, 101.33 kPa, x1 = 0.5453 | 1.233 mPa·s
323.15 K, 101.33 kPa, x1 = 0.7296 | 1.165 mPa·s
